Laboratory results reported in PubChem BioAssay AID588342 (National Center for Advancing Translational Sciences (NCATS), 2011).
In all, about 360,000 compounds went through this assay and about 25,000 (6.9%) were called active. This list was built around the results that the source calls inconclusive (neither active nor inactive); the mix of calls is not that of the screen. Calls follow the shape of the dose curve; as a rule, active = well fitted inhibition curve with a large enough effect; inconclusive = small, poorly fitted or top-dose-only effect; inactive = flat fitted curve, though single readings scatter. Potencies beside an inconclusive call are fits to weak or partial responses and may not hold up.

target: Luciferin 4-monooxygenase (Photinus pyralis) (UniProt P08659); experiment: qHTS profiling assay for firefly luciferase inhibitor/activator using purifed enzyme and Km concentrations of substrates (counterscreen for miR-21 project); details: purified FLuc, luminescence inhibition; series mostly up to 57.5 µM; also: nearly all actives have a fitted effect of over 55% in size
UniProt P08659, sequence (P08659 whole entry, looked up): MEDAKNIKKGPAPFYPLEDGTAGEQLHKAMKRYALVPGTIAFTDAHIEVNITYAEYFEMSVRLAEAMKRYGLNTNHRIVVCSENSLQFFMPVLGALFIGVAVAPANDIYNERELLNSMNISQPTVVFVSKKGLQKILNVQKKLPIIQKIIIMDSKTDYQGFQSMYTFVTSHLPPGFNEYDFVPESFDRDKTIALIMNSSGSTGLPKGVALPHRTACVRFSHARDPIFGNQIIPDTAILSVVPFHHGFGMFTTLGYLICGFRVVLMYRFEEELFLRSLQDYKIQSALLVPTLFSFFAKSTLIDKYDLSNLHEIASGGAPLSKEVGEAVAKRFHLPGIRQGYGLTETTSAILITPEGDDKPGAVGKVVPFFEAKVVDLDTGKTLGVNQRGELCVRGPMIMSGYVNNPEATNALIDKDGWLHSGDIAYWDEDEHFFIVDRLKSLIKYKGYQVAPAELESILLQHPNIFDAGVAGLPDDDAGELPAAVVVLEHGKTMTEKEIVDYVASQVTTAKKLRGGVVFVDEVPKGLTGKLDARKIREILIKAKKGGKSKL
Outline: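 Biochemical qHTS of compounds, final roughly 60 µM downward over six points, against 10 nM purified firefly luciferase using Km concentrations of substrates (10 uM D-luciferin, 10 uM ATP) in Tris acetate pH 7.5 buffer; luminescence output.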
Potency is read from the fitted curve at half-maximal effect; tags tell the direction and shape of the fitted curve.

Compound	Potency
Cc1ccc(CNC(=O)CN2C(=O)CSc3c2c(C)nn3-c2ccccc2)cc1	inactive
CC(C)(C)NC(=O)C(=O)NNC(=O)c1cccc(Br)c1	inconclusive: 26.9 µM [inhibitor, partial curve, poor fit]
COc1ccc(C2NC(=S)N3C(c4ccc(OC)cc4)NC(=S)N23)cc1 (stereo not given)	inconclusive: 8.49 µM [inhibitor, partial curve]
O=C(COc1ccc2ccccc2c1)N1CCN(C(=O)c2cccs2)CC1	inconclusive: 37.9 µM [inhibitor, single point]
COc1cccc(-c2nc3ccccc3c(=O)o2)c1	active: 4.78 µM
Oc1ccc(Cl)cc1C1=NNC(c2cccs2)C1 (stereo not given)	inconclusive: 37.9 µM [inhibitor, single point]
CCN(CC(=O)Nc1ccc(C(=O)Nc2ccc(OC)cc2)cc1)Cc1nc2ccccc2c(=O)[nH]1	inconclusive: 30.1 µM [inhibitor, partial curve, poor fit]
COc1ccc(Br)cc1/C=N/Nc1cccc(C(=O)O)c1	active: 21.3 µM
Cc1ccc(OCCNC(=O)CCNC(=O)c2ccc(Cl)cc2)cc1	inactive
CCc1ccc(/C=C/C(=O)c2ccc(N3CCOCC3)cc2)cc1	active: 1.51 µM
COc1ccc(-c2cc(C(=O)Nc3ccc(C)cc3)no2)cc1	inactive
CC1(c2ccccc2Cl)NC(=O)N(CC(=O)Nc2ccc(N3CCCCC3)cc2)C1=O (stereo not given)	inconclusive: 23.9 µM [inhibitor, single point]
COc1ccc(CN2C(=O)CS/C2=N/N=C/c2cccs2)cc1	active: 16.9 µM
Cc1oc(-c2ccc(-c3ccccc3)cc2)nc1CN(C)C1CCOC1 (stereo not given)	active: 9.53 µM
COc1ccc(NC(=O)CSc2ccc3c(c2)OCCO3)cc1OC	inactive
O=C(Nc1cccc2ncccc12)c1cc2ccccc2o1	inconclusive: 16.9 µM [inhibitor, partial curve]
CCC(C)c1ccc(N(C(=O)c2ccco2)C(C(=O)NC2CCCC2)c2cccnc2)cc1 (stereo not given)	inconclusive: 37.9 µM [inhibitor, single point]
N#CC(C#N)=C1NC(N)=C(C#N)C(c2ccccc2)=C1C#N	inconclusive: 30.1 µM [inhibitor, single point]
CCN(c1ccc(OCC(=O)OCC(=O)c2c(N)n(C)c(=O)n(C)c2=O)cc1)S(=O)(=O)c1ccccc1	active: 12 µM
CC1CN(C2=NC(=O)/C(=C3/C(=O)N(Cc4ccc(F)cc4)c4ccccc43)S2)CC(C)O1 (stereo not given)	inconclusive: 8.49 µM [inhibitor, partial curve]
